Test results reported in PubChem BioAssay AID624418 (National Center for Advancing Translational Sciences (NCATS), 2012).
The campaign covered roughly 410,000 compounds. About 530 (0.13%) were called active. The inconclusive results got no clear call from the source; some entries with a clear call stand among them for comparison. Calls follow the shape of the dose curve; as a rule, active = well fitted inhibition curve with a large enough effect; inconclusive = small, poorly fitted or top-dose-only effect, or another doubt; inactive = no such curve, though single readings can be large or run the other way. A potency beside an inconclusive call is a rough fit, not a confirmed value.
% is scaled to controls: 0 for no effect and ±100 for the full control effect; potency is read from the fitted curve at half-maximal effect.

Assay: qHTS of GLP-1 Receptor Inverse Agonists: Cytotox Screen
Conditions: HEK293 cAMP-luciferase reporter cells, luminescence, 24 h; activity change, negative = inhibition: at 38.3 µM (top of the series) unless noted
Method in brief: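 To flag toxic compounds, the library was rerun on cells for 24 hr at 37 deg C and 5% CO2. Viability-linked luminescence was captured 12 min after adding luciferase detection reagent.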
For `COCCCNC(=O)CSc1nc2c(sc3ccccc32)c(=O)n1CCCC(=O)NCCOC`, the “activity change, negative = inhibition” value was inactive: 1.63%.
In the case of `COc1ccc(-c2nc3c(C)cc(Br)cn3c2Cc2ccc(C)cc2)cc1OC`, the “activity change, negative = inhibition” value is reported as inactive: 1.63%.
In the case of `CCOC(=O)c1c(NC(=O)c2cccs2)sc(CC)c1-c1cccs1`, the “activity change, negative = inhibition” value is reported as inactive: -10.4%.
For `O=C(Nc1ccc(Cl)cc1)N1CCN(c2ccccc2)CC1`, the “activity change, negative = inhibition” value was inactive: -7.64%.
In the case of `Cc1ccc(N2C(=O)CC(Nc3ccc(Cl)c(S(=O)(=O)N(C)C)c3)C2=O)c(C)c1` (centres undefined), the “activity change, negative = inhibition” value is reported as inactive: -8.92%.
In the case of `Cc1cc(C)n(-c2nc(C)nc(NCc3ccccc3)n2)n1`, the Potency is reported as inconclusive: 10 µM [inhibitor, partial curve].
In the case of `Cn1nc(C(F)(F)F)c(-c2ccc(Br)cc2)c1NC(=O)Nc1ccc(F)cc1F`, the Potency is reported as inconclusive: 20 µM [inhibitor, single point].
For `CC(Nc1cccc2ccccc12)C(=O)N/N=C/c1ccc([N+](=O)[O-])cc1` (centres undefined), the “activity change, negative = inhibition” value was inactive: 13.9%.
For `NS(=O)(=O)c1ccc(CCNC(=O)C2CCCN2C(=O)OCc2ccccc2)cc1` (centres undefined), the “activity change, negative = inhibition” value was inactive: -14.9%.
For `C=CCNC(=S)NNC(=O)C(CCCC)CC(C)O` (centres undefined), the Potency was inconclusive: 31.6 µM [inhibitor, single point].
For `COc1cccc(OCC(O)CN2CCC(CN3C(=O)c4cccc5cccc(c45)C3=O)CC2)c1` (centres undefined), the Potency was inconclusive: 10 µM [inhibitor, single point].
In the case of `O=C(NCCc1ccc(Cl)cc1)C1CCCN(S(=O)(=O)c2cnc[nH]2)C1` (centres undefined), the Potency is reported as inconclusive: 7.94 µM [inhibitor, partial curve, poor fit].
In the case of `O=C(COC(=O)C1CC2C=CC1C2)Nc1ccc2c(c1)OC(F)(F)O2` (centres undefined), the Potency is reported as inconclusive: 28.2 µM [inhibitor, single point].
For `Cc1ccc(-n2nc(C)c(NC(=O)CCl)c2C)cc1C`, the Potency was inconclusive: 12.6 µM [inhibitor, single point].
For `O=C1/C(=C/c2ccccc2Cl)SC(=S)N1CCC(=O)N1CCCCC1CCO` (centres undefined), the Potency was inconclusive: 31.6 µM [inhibitor, single point].
For `COc1cc(C(CCN2CCCCC2)c2c(OC)cc(OC)c3c(-c4ccccc4)cc(=O)oc23)cc(OC)c1OC` (centres undefined), the Potency was inconclusive: 22.4 µM [inhibitor, single point].
With `CCCN(CCC)CCCNC(=O)Cn1ncc2c3ccccc3n(Cc3ccccc3)c2c1=O` the “activity change, negative = inhibition” value was inactive: -1.81%.
In the case of `O=[N+]([O-])c1cc(C(F)(F)F)cc([N+](=O)[O-])c1NCCCNc1ccc([N+](=O)[O-])c2cccnc12`, the Potency is reported as inconclusive: 10 µM [inhibitor, partial curve, poor fit].
With `COc1ccc(NC(=O)CCS(=O)(=O)c2ccc3nc(C)sc3c2)cc1Cl` the “activity change, negative = inhibition” value was inactive: -5.57%.
In the case of `CN1C(=O)/C(=C\C(=O)c2cccs2)c2ccccc21`, the Potency is reported as inconclusive: 11.2 µM [inhibitor, single point].
In the case of `CS(=O)(=O)N(CC(=O)N1CCOCC1)c1ccccc1`, the “activity change, negative = inhibition” value is reported as inactive: 5.37%.
With `COc1ccc(C(C(=O)NC2CCCC2)N2CCc3ccccc32)cc1` (centres undefined) the Potency was inconclusive: 28.2 µM [inhibitor, single point].
With `COc1ccc2cc(C(N)=O)/c(=N/NC(=O)c3ccco3)oc2c1` the Potency was inconclusive: 25.1 µM [inhibitor, partial curve, poor fit].
With `CC(NC(=O)CN(c1ccc(Cl)cc1Cl)S(=O)(=O)c1ccccc1)c1ccccc1` (centres undefined) the “activity change, negative = inhibition” value was inactive: -4.79%.
In the case of `CN(C(=O)CSC1=Nc2ccccc2C2=NC(c3ccccc3)C(=O)N12)C1CCCCC1` (centres undefined), the Potency is reported as inconclusive: 10 µM [inhibitor, partial curve].
With `Cc1cccc(N2CCN(C(=S)c3ccc4c(c3)OCO4)CC2)c1` the Potency was inconclusive: 2.51 µM [inhibitor, full curve].
For `O=C(Cn1ccc2cc(S(=O)(=O)N3CCCCC3)ccc21)NCc1cccc(Cl)c1`, the “activity change, negative = inhibition” value was inactive: 0%.
For `O=C(CN1CCCN(Cc2ccccc2Cl)S1(=O)=O)NCc1ccccc1`, the “activity change, negative = inhibition” value was inactive: 3.49%.
In the case of `Cc1ccc(C(=O)N/C(=C\c2ccc(-c3ccc(Br)cc3)o2)C(=O)NCCCN(C)C)cc1`, the Potency is reported as inconclusive: 3.55 µM [inhibitor, full curve, poor fit].
In the case of `O=C(CNC(=O)COc1ccccc1)NCc1cccnc1`, the Potency is reported as inconclusive: 0.501 µM [inhibitor, full curve, poor fit].
For `CC(=O)/C=C/n1c(=S)oc2ccccc21`, the Potency was active: 11.2 µM.
For `CC(C)N(Cc1ccccc1)C(=O)Cn1ncc2c([nH]c3ccccc32)c1=O`, the “activity change, negative = inhibition” value was inactive: 5.71%.
In the case of `CCOC(=O)c1c(CSC(=N)N)n(C)c2cc(Br)c(OC(C)=O)cc12`, the Potency is reported as inconclusive: 20 µM [inhibitor, single point].
In the case of `CCC(C)[C@H](N)c1nnc(SCC(=O)c2ccc(Cl)cc2)o1` (some centres undefined), the Potency is reported as inconclusive: 12.6 µM [inhibitor, partial curve, poor fit].
For `N=C1S/C(=C\c2ccc(-c3cccc(Cl)c3)o2)C(=O)N1c1nccs1`, the Potency was inconclusive: 2 µM [inhibitor, full curve, poor fit].
For `COc1ccc(NC(=O)C2(C)Cc3c(-c4cccc(NC(C)=O)c4)ccnc3O2)cc1` (centres undefined), the Potency was inconclusive: 1.58 µM [inhibitor, full curve].
In the case of `O=C(Nc1cccc(NC(=O)c2ccc(-c3cccc(Br)c3)o2)c1)c1ccco1`, the Potency is reported as inconclusive: 11.2 µM [inhibitor, single point].
With `COc1ccccc1C1NC(c2ccccc2OC)C(C)C(=O)C1C` (centres undefined) the “activity change, negative = inhibition” value was inactive: 2.17%.
For `O=Cc1ccc(Sc2nnc(-c3ccccc3)o2)c([N+](=O)[O-])c1`, the Potency was inconclusive: 8.91 µM [inhibitor, single point].
With `CCc1ccc(NC(=S)Nc2cccc3cnccc23)cc1` the Potency was inconclusive: 20 µM [inhibitor, single point].
With `COCC1CCCN(Cc2cn(Cc3ccccc3)nc2-c2cc3ccccc3o2)C1` (centres undefined) the Potency was inconclusive: 28.2 µM [inhibitor, single point].
In the case of `CN1CCN(c2ccc([N+](=O)[O-])c(-n3nc(-c4ccccc4)c4ccccc4c3=O)c2)CC1`, the Potency is reported as inconclusive: 10 µM [inhibitor, partial curve].
With `COc1cccc(CN2CCC(C(=O)Nc3ccc(-c4cccc(C)c4)cc3)CC2)c1O` the Potency was inconclusive: 12.6 µM [inhibitor, single point].
With `COc1cccc(C2CNC3(CCCC(C)C3)c3[nH]c4ccccc4c32)c1OC` (centres undefined) the Potency was inconclusive: 7.94 µM [inhibitor, partial curve].
In the case of `O=C(c1ccc(OC2CCN(C/C=C/c3ccc(F)cc3)CC2)cc1)N1CCCCC1`, the Potency is reported as inconclusive: 28.2 µM [inhibitor, single point].
For `CCOc1ccc(-c2nnc(N3CCCCC3)c3ccccc23)cc1`, the Potency was inconclusive: 28.2 µM [inhibitor, single point].
With `COc1ccccc1C(CNC(=S)NCc1ccccc1)N1CCCC1` (centres undefined) the Potency was inconclusive: 14.1 µM [inhibitor, partial curve, poor fit].
With `CCOc1ccc(CNCc2c(C(=O)O)n(Cc3ccc(C)cc3)c3cc(C)ccc23)cc1` the Potency was inconclusive: 22.4 µM [inhibitor, single point].
In the case of `CC1(C)Cc2c(sc3c2c(=N)n(Cc2ccco2)c(=O)n3Cc2ccc(Cl)cc2)CO1`, the “activity change, negative = inhibition” value is reported as inactive: -14.6%.
For `COc1ccccc1C(=O)Nc1ccnn1C1CCN(C/C=C/c2ccccc2)CC1`, the “activity change, negative = inhibition” value was inactive: -4.47%.
With `CC(=O)Cc1nsc(NC(=O)c2c(-c3ccccc3Cl)noc2C)n1` the “activity change, negative = inhibition” value was inactive: -10.2%.
In the case of `CC(=O)Nc1ccc(Nc2cc(C)nc3c(-c4ccccc4)c(C)nn23)cc1`, the Potency is reported as inconclusive: 11.2 µM [inhibitor, single point].
For `Cc1nc(-c2ccccn2)nc(N2CCOCC2)c1Cl`, the Potency was inconclusive: 28.2 µM [inhibitor, single point].
For `C=C(C)CNC(=S)N/N=C(\C)c1cccc(NC(C)=O)c1`, the Potency was inconclusive: 20 µM [inhibitor, single point].
For `CCCOc1ccc2oc(=O)c3c(c2c1)CCCN3C(=O)CN1CCc2ccccc2C1`, the Potency was inconclusive: 28.2 µM [inhibitor, single point].
With `CC(C)(C)c1ccc(C(=O)NC2(C(F)(F)F)NC(=O)N(CCc3ccccc3)C2=O)cc1` (centres undefined) the “activity change, negative = inhibition” value was inactive: -32.4%.
In the case of `CCOc1ccccc1NC(=O)C(=O)NCCc1sc2nc(-c3ccc(OC)cc3)nn2c1C`, the “activity change, negative = inhibition” value is reported as inactive: -1.59%.
For `Cc1nn2c(N3CCCC3)cc(C(C)C)nc2c1-c1ccccc1`, the “activity change, negative = inhibition” value was inactive: -3.35%.
In the case of `Cc1ccc(N2CC(C(=O)Nc3nnc(SCCN4CCOCC4)s3)CC2=O)cc1` (centres undefined), the Potency is reported as inconclusive: 0.501 µM [inhibitor, full curve, poor fit].
With `CC1=NN(c2nc(-c3ccc(C)cc3)cs2)C(=O)C1N=Nc1ccccc1O` (centres undefined) the Potency was inconclusive: 1.58 µM [inhibitor, full curve, poor fit].
In the case of `CCOc1ccc(C(=O)COC(=O)c2c(-c3ccccc3)noc2C)cc1`, the Potency is reported as inconclusive: 6.31 µM [inhibitor, partial curve].
For `O=C(Cn1cnc2c(oc3ccccc32)c1=O)c1ccccc1`, the “activity change, negative = inhibition” value was inactive: 4.92%.
For `Cc1nc(Cl)c2oc3ccccc3c2n1`, the Potency was inconclusive: 10 µM [inhibitor, single point].
With `COC(=O)c1ccc(NC(=O)CN2CCN(S(=O)(=O)c3ccc(Br)cc3)CC2)cc1` the Potency was “inactive”.
With `COc1ccc(S(=O)(=O)N(CC(=O)Nc2cc(C)ccc2OC)Cc2ccccc2)cc1` the “activity change, negative = inhibition” value was inactive: 0.695%.
With `CCOc1ccccc1NS(=O)(=O)c1ccc2[nH]c3c(c2c1)CCCCC3` the Potency was inconclusive: 28.2 µM [inhibitor, single point].
For `CCOc1cc(-c2c(C#N)c(N)nc3c2CCCC3C)ccc1O` (centres undefined), the Potency was inconclusive: 11.2 µM [inhibitor, single point].
With `CCCCOc1ccc(/C=C/C2=CC(C)(C)NC(=S)N2)cc1OCC` the Potency was inconclusive: 3.98 µM [inhibitor, full curve, poor fit].
With `CCCN(CCC)CCCNC(=O)C1CCN(c2nc3ccc(CC)cc3s2)CC1` the “activity change, negative = inhibition” value was inactive: -17.6%.
